Results from a collection of fitness landscapes (doi:10.1016/j.celrep.2020.107928).
Whole data set: some 81,000 sequences, median “one-hybrid fitness for binding parS DNA” near -0.17, cut for the highest 2% near 0.51. The list shows a part of the results.

B1: Caulobacter ParB omega fusion; a variant is named by its letters at X, in order, B8GW30 (parent)
chain: MESVVVGEPGMSEGRRGLGRGLSALLGEVDAAPAQAPGEQLGGSREAPIEILQRNPDQPRRTFREEDLEDLSNSIREKGVLQPILVRPSPDTAGEYQIVAGERAWRAAQRAGLKTVPIMVRELDDLAVLEIGIIENVQRADLNVLEEALSYKVLMEKFERTQENIAQTIGKSXSHVANXMRLLXLPDEVQSYLVSGELTAXHARAIAAAADPVALAKQIIEGGLSVRETEALARKAPNLSAGKSKGGRPPRVKDTDTQALESDLSSVLGLDVSIDHRGSTGTLTITYATLEQLDDLCNRLTRGI

Variants of: B1
Test: one-hybrid fitness for binding parS DNA (scaled: cognate 1, non-cognate 0); higher = stronger binding
Details: with parS DNA site
How it was run: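 In E. coli USO, a HIS3 reporter with its site placed 19 bp from the promoter was used to select Caulobacter ParB variants randomised at four specificity codons. Growth lasted 48 hours at 37°C on histidine-free M9 containing 0.1 mM IPTG and 5 mM 3-AT. Fitness was taken as the log change in variant-to-wild-type read ratio from Illumina sequencing of pre- and post-selection plasmids, rescaled between the non-cognate and cognate sites.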

| Variant | one-hybrid fitness for binding parS DNA |
| --- | --- |
| QSID | ≤ 0.2 |
| AVLS | ≤ 0.2 |
| KACL | ≤ 0.2 |
| FTDF | ≤ 0.2 |
| QPIE | ≤ 0.2 |
| ITPG | ≤ 0.2 |
| MRLI | ≤ 0.2 |
| PCTH | ≤ 0.2 |
| NSHC | ≤ 0.2 |
| ATWW | ≤ 0.2 |
| QGEL | ≤ 0.2 |
| DPST | ≤ 0.2 |
| RHSD | ≤ 0.2 |
| HTAR | ≤ 0.2 |
| VLYG | ≤ 0.2 |
| QNPW | ≤ 0.2 |
| HALI | ≤ 0.2 |
| LKKE | ≤ 0.2 |
| VTDV | ≤ 0.2 |
| PTRT | ≤ 0.2 |
| ASDT | ≤ 0.2 |
| PIRD | ≤ 0.2 |
| EMIY | ≤ 0.2 |
| TLNL | ≤ 0.2 |

| Variant | one-hybrid fitness for binding parS DNA |
| --- | --- |
| YPLW | ≤ 0.2 |
| TPMG | ≤ 0.2 |
| SKLW | ≤ 0.2 |
| CAER | ≤ 0.2 |
| SFWS | ≤ 0.2 |
| DYTG | ≤ 0.2 |
| SQDG | ≤ 0.2 |
| QSMM | ≤ 0.2 |
| RVML | ≤ 0.2 |
| NAPG | ≤ 0.2 |
| KIPM | ≤ 0.2 |
| KTNC | ≤ 0.2 |
| TYMG | ≤ 0.2 |
| QRYQ | ≤ 0.2 |
| NMNT | ≤ 0.2 |
| MSER | ≤ 0.2 |
| PHVT | ≤ 0.2 |
| DIWC | ≤ 0.2 |
| SPKD | ≤ 0.2 |
| PKDL | ≤ 0.2 |
| GADS | ≤ 0.2 |
| YELE | ≤ 0.2 |
| TPYS | ≤ 0.2 |
| LVER | ≤ 0.2 |

| Variant | one-hybrid fitness for binding parS DNA |
| --- | --- |
| KLVT | ≤ 0.2 |
| EGQW | ≤ 0.2 |
| WNVY | ≤ 0.2 |
| FQLM | ≤ 0.2 |
| NGMT | ≤ 0.2 |
| QPKC | ≤ 0.2 |
| WAAC | ≤ 0.2 |
| QSQM | ≤ 0.2 |
| NKVV | ≤ 0.2 |
| NAVL | ≤ 0.2 |
| CITK | ≤ 0.2 |
| PWTK | ≤ 0.2 |
| TMVV | ≤ 0.2 |
| EFLG | ≤ 0.2 |
| QTQM | ≤ 0.2 |
| VGQS | ≤ 0.2 |
| SWLK | ≤ 0.2 |
| QLHH | ≤ 0.2 |
| LGCR | ≤ 0.2 |
| NRFG | ≤ 0.2 |
| PDCY | ≤ 0.2 |
| QWCR | ≤ 0.2 |
| ILDY | ≤ 0.2 |
| AMAL | ≤ 0.2 |

| Variant | one-hybrid fitness for binding parS DNA |
| --- | --- |
| AACF | ≤ 0.2 |
| QQRE | ≤ 0.2 |
| TLQC | ≤ 0.2 |
| VFPI | ≤ 0.2 |
| PATR | ≤ 0.2 |
| FAPF | ≤ 0.2 |
| TIHL | ≤ 0.2 |
| NNVR | ≤ 0.2 |
| SSVQ | ≤ 0.2 |
| RTSI | ≤ 0.2 |
| KRHV | ≤ 0.2 |
| DQDV | ≤ 0.2 |
| DTNN | ≤ 0.2 |
| QMHY | ≤ 0.2 |
| RFQN | 0.457 |
| RFNP | ≤ 0.2 |
| SSRS | ≤ 0.2 |
| TSTF | ≤ 0.2 |
| SNNS | ≤ 0.2 |
| NHPI | ≤ 0.2 |
| RNWA | 0.294 |
| TNYY | ≤ 0.2 |
| RQFV | ≤ 0.2 |
| NQQK | ≤ 0.2 |

| Variant | one-hybrid fitness for binding parS DNA |
| --- | --- |
| NRYV | ≤ 0.2 |
| VRLN | ≤ 0.2 |
| VDNP | ≤ 0.2 |
| GRTC | ≤ 0.2 |
| SWSN | ≤ 0.2 |
| RHPD | ≤ 0.2 |
| RNTL | ≤ 0.2 |
| HRMT | ≤ 0.2 |
| TDKC | ≤ 0.2 |
| KSRK | ≤ 0.2 |
| GSIS | ≤ 0.2 |
| HAPR | ≤ 0.2 |
| SGAS | ≤ 0.2 |
| WYRR | ≤ 0.2 |
| VHPC | ≤ 0.2 |
| TYTY | ≤ 0.2 |
| KTGM | ≤ 0.2 |
| LILL | ≤ 0.2 |
| HRDI | ≤ 0.2 |
| RPQR | ≤ 0.2 |
| TRWY | ≤ 0.2 |
| CFTC | ≤ 0.2 |
| FDKN | ≤ 0.2 |
| ADSV | ≤ 0.2 |

| Variant | one-hybrid fitness for binding parS DNA |
| --- | --- |
| RPNC | ≤ 0.2 |
| VMDE | ≤ 0.2 |
| CSNG | ≤ 0.2 |
| CLTG | ≤ 0.2 |
| SKSV | ≤ 0.2 |
| PQHE | ≤ 0.2 |
| QELI | ≤ 0.2 |
| GRLI | ≤ 0.2 |
| VNKR | ≤ 0.2 |
| TVMI | ≤ 0.2 |
| KMSE | ≤ 0.2 |
| WLDW | ≤ 0.2 |
| QMCT | ≤ 0.2 |
| QDHA | ≤ 0.2 |
| VIGR | ≤ 0.2 |
| ELCG | ≤ 0.2 |
| PHNR | ≤ 0.2 |
| LLLW | ≤ 0.2 |
| LWEA | ≤ 0.2 |
| FTPA | ≤ 0.2 |
| FWTG | ≤ 0.2 |
| MADS | ≤ 0.2 |
| FPTR | ≤ 0.2 |
| EEAY | ≤ 0.2 |

| Variant | one-hybrid fitness for binding parS DNA |
| --- | --- |
| KTAS | ≤ 0.2 |
| WWTL | ≤ 0.2 |
| YRMG | ≤ 0.2 |
| ARHN | ≤ 0.2 |
| QKYP | ≤ 0.2 |
| QVIA | ≤ 0.2 |
| DGLR | ≤ 0.2 |
| CLVI | ≤ 0.2 |
| QCCP | ≤ 0.2 |
| MYYT | ≤ 0.2 |
| NMLW | ≤ 0.2 |
| HCCG | ≤ 0.2 |
| KARH | ≤ 0.2 |
| TKAG | ≤ 0.2 |
| LRFA | ≤ 0.2 |
| AQML | ≤ 0.2 |
| FTPC | ≤ 0.2 |
| RMVR | ≤ 0.2 |
| RAPC | 0.485 |
| VFGM | ≤ 0.2 |
| LVVQ | ≤ 0.2 |
| CVCV | ≤ 0.2 |
| GMHN | ≤ 0.2 |
| MVYT | ≤ 0.2 |

| Variant | one-hybrid fitness for binding parS DNA |
| --- | --- |
| HYSE | ≤ 0.2 |
| EDPG | ≤ 0.2 |
| CSTM | ≤ 0.2 |
| HWHR | ≤ 0.2 |
| PAGI | ≤ 0.2 |
| ETTQ | ≤ 0.2 |
| SSCI | ≤ 0.2 |
| NVWC | ≤ 0.2 |
| VKVC | ≤ 0.2 |
| PQCS | ≤ 0.2 |
| NIPT | ≤ 0.2 |
| VCQV | ≤ 0.2 |
| ISSR | ≤ 0.2 |
| RCWC | 0.959 |
| QTRF | ≤ 0.2 |
| IHKR | ≤ 0.2 |
| WMMG | ≤ 0.2 |
| LFWV | ≤ 0.2 |
| HCPR | ≤ 0.2 |
| GHSL | ≤ 0.2 |
| RSPM | ≤ 0.2 |
| CDVG | ≤ 0.2 |
| MGHS | ≤ 0.2 |
| LGMT | ≤ 0.2 |

| Variant | one-hybrid fitness for binding parS DNA |
| --- | --- |
| HCET | ≤ 0.2 |
| TWYY | ≤ 0.2 |
| LAET | ≤ 0.2 |
| AYMT | ≤ 0.2 |
| RHGG | 0.939 |
| RPHK | ≤ 0.2 |
| QYMP | ≤ 0.2 |
| RCMH | 0.242 |
| QECR | ≤ 0.2 |
| KVTG | ≤ 0.2 |
| LFCG | ≤ 0.2 |
| QLMR | ≤ 0.2 |
| HFRP | ≤ 0.2 |
| STHF | ≤ 0.2 |
| SDVR | ≤ 0.2 |
| LPGT | ≤ 0.2 |
| TRPL | ≤ 0.2 |
| VRTA | ≤ 0.2 |
| KSIM | ≤ 0.2 |
| ISSS | ≤ 0.2 |
| KYVN | ≤ 0.2 |
| WYPC | ≤ 0.2 |
| SYKV | ≤ 0.2 |
| DRAA | ≤ 0.2 |

| Variant | one-hybrid fitness for binding parS DNA |
| --- | --- |
| NSDL | ≤ 0.2 |
| LAPS | ≤ 0.2 |
| YSYN | ≤ 0.2 |
| SQPF | ≤ 0.2 |
| IVRC | ≤ 0.2 |
| NVPA | ≤ 0.2 |
| LGTT | ≤ 0.2 |
| ASYF | ≤ 0.2 |
| FRTG | ≤ 0.2 |
| RHYN | 0.448 |
| EYIR | ≤ 0.2 |
| PLKF | ≤ 0.2 |
| YQSS | ≤ 0.2 |
| FLSV | ≤ 0.2 |
| FCKC | ≤ 0.2 |
| PMYQ | ≤ 0.2 |
| LIMV | ≤ 0.2 |
| QWQR | ≤ 0.2 |
| ERAC | ≤ 0.2 |
| KIHT | ≤ 0.2 |
| YDNL | ≤ 0.2 |
| ITYT | ≤ 0.2 |
| ERRK | ≤ 0.2 |
| QVQQ | ≤ 0.2 |

| Variant | one-hybrid fitness for binding parS DNA |
| --- | --- |
| IKGR | ≤ 0.2 |
| RVTW | ≤ 0.2 |
| CRPH | ≤ 0.2 |
| SPVR | ≤ 0.2 |
| SAWA | ≤ 0.2 |
| PMWG | ≤ 0.2 |
| ANVA | ≤ 0.2 |
| RGAG | 0.661 |
| TLGR | ≤ 0.2 |
| PHNK | ≤ 0.2 |
| VTDR | ≤ 0.2 |
| SHMS | ≤ 0.2 |
| ACNT | ≤ 0.2 |
| QIQI | ≤ 0.2 |
| NACS | ≤ 0.2 |
| VMYT | 0.293 |
| RPSF | ≤ 0.2 |
| SYKT | ≤ 0.2 |
| LLYG | ≤ 0.2 |
| WNKA | ≤ 0.2 |
| DMKT | ≤ 0.2 |
| ACCL | ≤ 0.2 |
| RGKN | 0.369 |
| SSEK | ≤ 0.2 |

| Variant | one-hybrid fitness for binding parS DNA |
| --- | --- |
| AHCG | ≤ 0.2 |
| TESH | ≤ 0.2 |
| CNNN | ≤ 0.2 |
| KSEL | ≤ 0.2 |
| NKYT | ≤ 0.2 |
| FDPT | ≤ 0.2 |
| VCWS | ≤ 0.2 |
| FHTS | ≤ 0.2 |
| PYYA | ≤ 0.2 |
| WGCF | ≤ 0.2 |
| DCAS | ≤ 0.2 |
| HFSW | ≤ 0.2 |
| TTCF | ≤ 0.2 |
| QMFF | ≤ 0.2 |
| SKQY | ≤ 0.2 |
| RLWR | ≤ 0.2 |
| RCKK | ≤ 0.2 |
| CLTL | ≤ 0.2 |
| STMT | ≤ 0.2 |
| LRMR | ≤ 0.2 |
| VDDV | ≤ 0.2 |
| PQWD | ≤ 0.2 |
| VDGG | ≤ 0.2 |
| AFQS | ≤ 0.2 |

| Variant | one-hybrid fitness for binding parS DNA |
| --- | --- |
| YSII | ≤ 0.2 |
| GFNV | ≤ 0.2 |
| AYRP | ≤ 0.2 |
| EYTC | ≤ 0.2 |
| PVSN | ≤ 0.2 |
| TRSN | ≤ 0.2 |
| TIMC | ≤ 0.2 |
| ARNF | ≤ 0.2 |
| LMFF | ≤ 0.2 |
| RFCF | ≤ 0.2 |
| RLVC | 0.962 |
| IYIS | ≤ 0.2 |
| WWTR | ≤ 0.2 |
| LLQA | ≤ 0.2 |
| IFAI | ≤ 0.2 |
| SMFT | ≤ 0.2 |
| PQSD | ≤ 0.2 |
| GSNK | ≤ 0.2 |
